Measurements reported in publication PMC6919601, “Identification of Plasmodium dipeptidyl aminopeptidase allosteric inhibitors by high throughput screening” (PLoS ONE, 2019).
The whole screen tested about 110,000 compounds, of which about 230 (0.21%) showed an effect of 50% or more. This is one part of the list.

molecular target: DPAP1 (Plasmodium falciparum, UniProt Q8IIJ9); assay: primary screen, percent inhibition; read by cleavage of a fluorogenic dipeptide substrate; higher = more effect of the substance; parameters: species or system P. falciparum D10 trophozoite lysates; single well
Sequence (Q8IIJ9 whole entry, looked up): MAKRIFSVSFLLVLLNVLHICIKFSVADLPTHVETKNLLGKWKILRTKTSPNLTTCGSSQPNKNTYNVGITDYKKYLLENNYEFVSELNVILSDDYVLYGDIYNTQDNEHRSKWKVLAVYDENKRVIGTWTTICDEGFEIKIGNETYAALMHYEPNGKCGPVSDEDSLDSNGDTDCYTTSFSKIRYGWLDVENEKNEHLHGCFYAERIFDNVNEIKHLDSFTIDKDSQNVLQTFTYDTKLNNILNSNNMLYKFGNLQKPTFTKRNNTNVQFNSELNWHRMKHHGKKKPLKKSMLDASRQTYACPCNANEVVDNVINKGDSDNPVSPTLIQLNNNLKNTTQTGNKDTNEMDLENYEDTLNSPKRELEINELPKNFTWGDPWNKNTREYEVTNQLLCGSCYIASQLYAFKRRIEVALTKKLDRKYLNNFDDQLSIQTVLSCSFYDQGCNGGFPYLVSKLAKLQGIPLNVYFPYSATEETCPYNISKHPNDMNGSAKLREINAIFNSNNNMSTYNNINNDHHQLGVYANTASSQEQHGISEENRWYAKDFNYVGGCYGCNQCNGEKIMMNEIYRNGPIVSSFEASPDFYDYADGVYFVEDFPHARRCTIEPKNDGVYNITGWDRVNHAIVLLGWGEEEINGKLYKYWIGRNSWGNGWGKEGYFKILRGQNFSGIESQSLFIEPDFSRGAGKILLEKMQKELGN
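Further: 30 min substrate incubation versus DMSO and 10 µM JCP410 controls.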

SMILES	% Inhibition @ 10 uM [%]
CCCCCCCCOc1ccc(/C=C(\C#N)c2nc(-c3ccc(C)cc3)cs2)cc1	4.16
CCOc1ccccc1C(=O)N1CCN(C(c2ccccc2)c2ccccc2)CC1	-3.35
COc1cc(CNCCCN2CCOCC2)cc(Cl)c1OCC(=O)NC(C)(C)C	2
Cc1ccc(S(=O)(=O)NC2CCCCC2)cc1[N+](=O)[O-]	-4.35
Cc1nn(C)c(C)c1CN(C)C(=O)c1cc2n(n1)C(C(F)(F)F)CC(c1ccc3c(c1)OCO3)N2 (stereo not drawn)	-6.44
CCc1ccc(NC(=O)CCC(=O)Nc2ccc(CC)cc2)cc1	4.11
CC(N)C12CC3CC(CC(O)(C3)C1)C2 (stereo not drawn)	2.58
CC(C)N(CCc1ccncc1)C(=S)NCC1CCCO1 (stereo not drawn)	-4.53
O=C(CS(=O)(=O)c1ccc2ccccc2c1)N1CCCC1	3.19
CC(C)(C)Nc1nc(Cl)nc(NCc2ccccc2)n1	-5.23
COc1ccccc1CNC(=O)c1cccc2c1C(=O)N(C1CCCCC1)C2	-6.62
O=C(Nc1ccc(S(=O)(=O)NC2CCCCC2)cc1)NC1CCCCC1	0.323
O=C(CCc1ccc(-n2cnc3cccnc32)cc1)NC1CCCCCC1	-3.47
CCOc1cc(/C=C2/C(=N)N3OC(C)=CC3=NC2=O)cc(Cl)c1OCCOc1ccccc1	-1.43
O=C(C1c2ccccc2Oc2ccccc21)N1CCN(c2ncccn2)CC1	-1.06
Cc1cc(NC(=O)CN2CCN(CCO)CC2)nc2c1c(=O)oc1ccccc12	2.81
CC(C)CNC(=O)c1ccc2c(c1)C(=O)N(Cc1ccco1)C2=O	-5.6
CC1CCc2sc(NC(=O)C3CC(Cl)=CCC3C(=O)O)c(C#N)c2C1 (stereo not drawn)	-4.76
COc1cccc(N(CC(=O)Nc2ccc(C(C)C)cc2)S(C)(=O)=O)c1	1.52
Cc1cc(/C=C2/SC(=O)N(C(C)C)C2=O)c(C)n1-c1ccccn1	0.145
OCCN(CCO)CC(O)COc1cccc(Cl)c1 (stereo not drawn)	2.95
CCCn1c(=O)c2c(nc3n2CCN3Cc2ccccc2)n(C)c1=O	0.867
CC1=CCC2C(=O)N(C3CCCCC3)C(=O)C2C1 (stereo not drawn)	-2.2
Cc1ccc(CNC(=O)CNC(=S)N(Cc2ccccc2)Cc2cccs2)cc1	5.99
CCC1CCc2c(sc(N)c2C(=O)NC2CCCCC2)C1 (stereo not drawn)	-0.116
Cc1nc(-n2cccc2)sc1C(=O)NCCCc1ccccc1	-2.37

SMILES	% Inhibition @ 10 uM [%]
CCOC(=O)N1CCN(Cc2ccc(Cl)cc2Cl)CC1	3.24
CC(=O)C1=C(C)Nc2ncnn2C1c1ccc(Cl)cc1 (stereo not drawn)	2.68
OC1(c2ccc(F)cc2)CSC2=NCCN21 (stereo not drawn)	5.01
CC(C)OCCCNC(=O)c1noc2c1COc1ccccc1-2	58.6
CCn1cc(Cl)c(C(=O)NCc2cc3ccccc3[nH]2)n1	3.79
COC(=O)c1nc2ccccc2[nH]1	4.61
Cn1c2ccccc2[n+]2nc3c(cc12)c1cccnc1c1ncccc31	5.42
CC(=O)c1c(C)nc(-c2ccccc2)nc1N	-3.77
COc1ccc(C2SCC(=O)N2CCN2CCCCC2)cc1OC (stereo not drawn)	9.62
COc1cccc(C2=NS(=O)(=O)N(C)C(C(=O)NC(C)c3ccccc3)=C2)c1 (stereo not drawn)	3.92
COC(=O)[C@@H]1CCCN1C(=O)[C@H](CC(C)C)NC(=O)/C=C/S(=O)(=O)c1ccccc1	10.2
CCOc1ccc(C2c3c(-c4ccccc4O)n[nH]c3C(=O)N2Cc2ccco2)cc1OC (stereo not drawn)	0.366
Cc1cccc(NC(=O)C(C)Oc2ccccc2F)c1 (stereo not drawn)	3.57
Fc1ccc(N2CCN(C3CCC(c4ccccc4)CC3)CC2)cc1 (stereo not drawn)	6.52
O=C(Cc1ccccc1)Nc1ccc(-c2nc3ccccc3[nH]2)cc1	0.83
COC(=O)C1=CN(C2CC2)C=C(C(=O)OC)C1c1cccc(OC)c1	3.43
Cc1ccc2c(c1)c1c(n2C)/C(=N/O)CCC1	-0.216
Cc1cccc(NC(=O)c2ccc(C(=O)Nc3cccc(C)c3)nc2)c1	-0.67
Cc1ccc(C)c(NC(=O)CN(c2ccc(C(C)C)cc2)S(C)(=O)=O)c1	3.72
NS(=O)(=O)c1ccc(NC(=O)c2ccccc2F)cc1	4.57
CN1C(=O)C(=Cc2ccco2)C(=O)N(C)C1=O	1.7
O=C(O)c1ccc(S(=O)(=O)NCc2cccnc2)cc1	15.8
COc1ccc(-c2csc3ncn(Cc4c(F)cccc4Cl)c(=O)c23)cc1	-4.5
COc1ccc(-c2cnn3c(C)cc(C)nc23)cc1OC	-1.72
COc1ccc(C2=C/C(=C/c3ccco3)C(=O)O2)cc1	-5.62
O=C(O)CCC(=O)Nc1nc(-c2ccccc2)cs1	-5.7

SMILES	% Inhibition @ 10 uM [%]
CCOc1ccccc1CN1C(=O)c2ccccc2C1C(=O)NC(C)CC (stereo not drawn)	-0.668
CCCc1cc(-c2[nH]nc(C)c2-c2ccc3c(c2)OCCO3)c(O)cc1O	0.628
O=C(CN1C(=O)c2ccc(Br)cc2C1=O)Nc1ccc(C(=O)O)cc1	17.8
CCCc1c(C)nc2nc3ccccc3n2c1O	-0.85
Cc1ccc(Cl)cc1N(CC(=O)Nc1ccccc1C(=O)O)S(C)(=O)=O	-1.98
COc1ccc(Cn2c(SCc3ccc(C(=O)NC(C)C)cc3)nc3ccncc32)cc1	-2.14
Cc1ccccc1/C=C/c1nn2c(-c3ccoc3C)nnc2s1	-3.31
Oc1ccc(NCc2ccc(OCc3cccs3)cc2)cc1	-2.8
COc1cc(OC)cc(C(=O)O/N=C(\N)c2ccccn2)c1	3.8
CC1CCCc2c1nc(N)c(C#N)c2-c1ccc2c(c1)OCO2 (stereo not drawn)	-6.74
c1cncc(-c2nc3c4ccccc4nc(NCCCN4CCOCC4)n3n2)c1	7.15
CN(C)CCC1(c2ccc(O)c(O)c2)CCCCC1	-4.23
COc1ccccc1C1C2=C(CCCC2=O)OC2=C1C(=O)CCC2	-6.75
c1ccc(CN2CCN(Cc3cccs3)CC2)cc1	3.16
CC(C)Cn1c(CN2CCN(Cc3ccccc3)CC2)nc2c1c(=O)n(C)c(=O)n2C	-1.65
Cc1nc2c(-c3ccc(Cl)cc3)c(Cc3ccccc3)nn2c(O)c1Cl	2.92
CC(CN1CCCCC1CO)c1ccccc1 (stereo not drawn)	0.217
COc1ccccc1CNCc1ccccn1	10.5
N#CC1=C(N)OC2=C(C(=O)CC(c3ccccc3)C2)C12C(=O)Nc1ccccc12 (stereo not drawn)	4.12
CC1(C)CC(NC(=O)c2cncc(Br)c2)CC(C)(C)N1	-1.52
COc1ccc(Cn2c(C(=O)O)c(CNCCCc3ccccc3)c3ccccc32)cc1	0.616
Cc1ccc(NC(=O)CCN2C(=O)c3ccccc3C2=O)cc1[N+](=O)[O-]	-14.3
CC(C)CC(NC(=O)C1CCC(C)CC1)C(=O)NCc1cccnc1 (stereo not drawn)	4.02
CC(C)(C)C(=O)/C=C(/c1ccccc1)N1CCCCC1	-2.47
Cc1sc2ncnc(N3CCC(C)CC3)c2c1S(=O)(=O)N1CCOCC1	-5.17
CC(C)Oc1ccc(C(=O)C2=C(O)C(=O)N(Cc3cccnc3)C2c2ccco2)cc1 (stereo not drawn)	-1.35

SMILES	% Inhibition @ 10 uM [%]
COc1ccc(-c2cc(C)no2)cc1S(=O)(=O)NCc1ccc(C)o1	-1.95
COc1cc(C(CC(=O)Nc2ccccn2)N2Cc3ccccc3C2=O)cc(OC)c1OC (stereo not drawn)	-4.78
CN1CCN(Cc2ccccc2Sc2ccccc2)CC1	-0.334
CC(=O)N(C(C)=O)c1ncc2c([nH]c3ccccc32)c1C#N	-1.33
CCN(CC)C(=O)c1sc(NC(=O)c2ccc(C)cc2)c(C#N)c1C	-2.53
COc1ccc(-n2cc(Cl)nc(NCCc3c[nH]c4ccccc34)c2=O)cc1	-3.77
COc1cc(C2c3c(-c4c(C)cc(C)cc4O)n[nH]c3C(=O)N2CCO)cc(Br)c1O (stereo not drawn)	6.34
CCn1cc(CCC(=O)NC2CCCC(C)C2C)c2ccccc21 (stereo not drawn)	0.581
Cc1cc(C(F)(F)F)c2c(n1)sc1c(O)cc(O)nc12	3.39
Fc1cccc(F)c1-c1nc(-c2ccc(-n3cccc3)cc2)no1	5.76
C[C@@H](Cc1ccccc1)NC(=O)C(c1ccccc1)c1ccccc1	0.968
O=C(O)c1cc(NS(=O)(=O)c2cc(Cl)ccc2Cl)ccc1O	-4.39
O=C(CN1CCN(Cc2ccc3c(c2)OCO3)CC1)Nc1ccc(F)cc1	-17
Cc1cc(NC(=O)CN2CCc3ccccc3C2)nc2c1c(=O)oc1ccccc12	1.49
CCOc1ccc(NC(=O)C2=C(C)NC(=O)NC2c2ccc(Cl)cc2Cl)cc1 (stereo not drawn)	6.86
CCN(CC)S(=O)(=O)c1ccc(Cl)c(C(=O)OC)c1	-1.62
CCCNC(=O)Cn1ncc2c(C)n(Cc3ccc(F)cc3)c(C)c2c1=O	1.22
Fc1cccc(-n2c(S)nnc2CN2CCSCC2)c1	3.48
CN1CCc2oc3ccc(N)cc3c2C1	1.8
CC(C)NC(=O)c1cc(-c2cccs2)nc2ccccc12	0.0538
Nc1no[n+]([O-])c1C(=O)CSc1ncc(-c2ccccc2)nn1	-0.0108
CCOC(=O)N1CCN(C(=O)Cn2ncc3c(=O)oc4ccccc4c32)CC1	2.39
COc1ccccc1CNC(=O)C1CCCN1c1nn2c(=O)cc(C)nc2s1 (stereo not drawn)	4.55
Cc1cc(C)nc(NS(=O)(=O)c2ccc(NS(=O)(=O)c3cc(Cl)ccc3Cl)cc2)n1	-1.36
